Screen size: about 200,000 compounds; about 4,500 (2.2%) were called active. The shares of active, inactive and inconclusive entries below differ from those in the screen. Calls follow the shape of the dose curve; as a rule, active = well fitted inhibition curve with a large enough effect; inconclusive = small, poorly fitted or top-dose-only effect, or effect the other way; inactive = flat fitted curve, though single readings scatter. Potencies beside an inconclusive call are fits to weak or partial responses and may not hold up.
The compounds below were run against Cruzipain (Trypanosoma cruzi) (UniProt P25779) (assay: qHTS Assay for Promiscuous and Specific Inhibitors of Cruzain (without detergent)). Conditions: purified cruzain, Z-FR-AMC fluorescence, no detergent.
How it was run: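 Purified cruzain at 1.5 nM, pre-incubated 15 min with compound at room temperature in 100 mM sodium acetate pH 5.5, 5 mM DTT, 0.00005% Triton X-100. Reaction started with 2 uM Z-FR-AMC; AMC fluorescence increase over 60 s gives rate.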
Also: nearly all actives have a fitted effect of over 40% in size.
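For max response, negative = inhibition in this document: plate controls were enzyme without inhibitor for no effect and buffer without enzyme for full effect.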
Potency is read from the fitted curve at half-maximal effect; tags tell the direction and shape of the fitted curve.

Sequence of UniProt P25779 (P25779 whole entry, looked up): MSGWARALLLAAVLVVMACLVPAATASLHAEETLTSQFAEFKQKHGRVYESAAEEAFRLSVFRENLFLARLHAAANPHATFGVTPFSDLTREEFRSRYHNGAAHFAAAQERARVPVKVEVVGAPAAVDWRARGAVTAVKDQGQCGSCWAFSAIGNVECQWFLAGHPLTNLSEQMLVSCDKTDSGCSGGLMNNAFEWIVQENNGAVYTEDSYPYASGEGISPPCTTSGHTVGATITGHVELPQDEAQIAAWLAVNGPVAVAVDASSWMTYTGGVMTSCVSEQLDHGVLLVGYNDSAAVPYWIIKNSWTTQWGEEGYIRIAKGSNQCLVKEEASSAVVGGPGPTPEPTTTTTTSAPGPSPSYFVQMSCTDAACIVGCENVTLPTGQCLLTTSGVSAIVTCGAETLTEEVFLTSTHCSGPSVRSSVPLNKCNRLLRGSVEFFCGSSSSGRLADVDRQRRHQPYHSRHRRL

Structure (SMILES) | Potency | max response, negative = inhibition
COc1ccc(S(=O)(=O)c2c(Nc3c(C)cccc3C)sc(C(=O)c3ccc(F)cc3)c2N)cc1 | active: 6.31 µM | –
CCc1cccc(C)c1Nc1c(-c2ccc(SC)cc2)nc2sccn12 | inconclusive: 39.8 µM [inhibitor, single point] | –
Cc1cccc2sc(NC(=O)C3CCN(S(=O)(=O)c4cc([N+](=O)[O-])ccc4Cl)CC3)nc12 | active: 20 µM | –
Cn1c(C(=O)NCCN2CCc3ccccc3C2)cc2c(=O)n(C)c3ccccc3c21 | inconclusive: 15.8 µM [inhibitor, partial curve] | –
CC1CCc2c(sc(NC(=O)CSc3nnc(-c4ccccc4)o3)c2C#N)C1 (stereo not given) | inconclusive: 20 µM [inhibitor, partial curve] | –
c1ccc2sc(NC3=NCN(Cc4ccc5c(c4)OCO5)CN3)nc2c1 | inconclusive: 31.6 µM [inhibitor, single point] | –
Cc1nn(-c2ccccc2)c(N2CCCC2)c1/C=C1\N=C(c2ccccc2)OC1=O | active: 0.794 µM | –
O=C(COC(=O)C1CC(O)CN1C(=O)Oc1ccccc1)c1ccc(Br)cc1 (stereo not given) | inconclusive: 39.8 µM [activator, single point] | –
CCOC(=O)C1CCCN(c2nc3ccccc3nc2C(C#N)C(=O)NCc2ccccc2)C1 (stereo not given) | inconclusive: 31.6 µM [inhibitor, single point] | –
Cc1noc(C)c1COc1ccc(C(=O)OC(C)C(=O)Nc2ccc(S(=O)(=O)N3CCOCC3)cc2)cc1 (stereo not given) | inconclusive: 39.8 µM [activator, single point] | –
Cc1csc2nc(COC(=O)CNC(=O)c3ccc(F)cc3)cc(=O)n12 | – | inactive: -13.8%
O=C(c1ccc(Cl)c(Cl)c1)N1CCC(=O)N(C(COCc2cccc(Cl)c2)Cc2ccccc2)CC1 (stereo not given) | – | inactive: 3.73%
NC(=O)C1CCN(C(=O)c2ccc3c(c2)N(Cc2cccc(Cl)c2)C(=O)c2ccccc2S3=O)CC1 (stereo not given) | inconclusive: 20 µM [activator, single point] | –
Fc1ccc(Nc2nc(SCc3ccccc3Cl)nc3ccccc23)cc1 | inconclusive: 39.8 µM [inhibitor, single point] | –
Cc1ccc(OCC(=O)N/N=C\c2cn(Cc3ccccc3)c3ccccc23)cc1C | inconclusive: 39.8 µM [inhibitor, single point] | –
Cc1ccccc1-n1c(-c2ccc(Cl)cc2)cnc1SCC(=O)NC1CCS(=O)(=O)C1 (stereo not given) | inconclusive: 31.6 µM [activator, partial curve] | –
Cc1cccc(N2CCN(C(c3ccccc3)c3nnc(-c4ccccc4F)o3)CC2)c1C (stereo not given) | – | inactive: -4.62%
CCOC(=O)c1ccc(CNC(=O)c2cc(C(C)(C)C)oc2C)o1 | inconclusive: 39.8 µM [activator, single point] | –
CCCCCCCCCC(=O)NC(CN1CCOCC1)[C@H](O)c1ccccc1 (stereo not given in full) | inconclusive: 25.1 µM [activator, single point] | –
COc1ccc(-n2nc3ccc(NC(=O)c4c(OC)cccc4OC)cc3n2)cc1 | – | inactive: -5.73%

Structure (SMILES) | Potency | max response, negative = inhibition
CCN1CCN(c2nc3c(c(=O)[nH]c(=O)n3C)n2CCCSc2ncccn2)CC1 | – | inactive: -7%
COc1ccc(CCC(=O)NCc2ccc3c(c2)CCN3C(=O)c2ccc(Cl)cc2)cc1 | – | inactive: 12.1%
Cc1ccc(CSC2=Nc3ccccc3C3=NC(CCC(=O)NC4CCCCC4)C(=O)N23)cc1 (stereo not given) | – | inactive: -7.34%
COc1ccccc1CN1CC[C@@]2(CCCN(S(=O)(=O)c3ccccc3)C2)C1 | – | inactive: 4.8%
Cn1cnnc1Sc1ccc(C(=O)NCCC23CC4CC(CC(C4)C2)C3)cc1[N+](=O)[O-] | inconclusive: 39.8 µM [activator, single point] | –
CCC1=Nc2cc(C(=O)NCCc3ccc(OC)c(OC)c3)ccc2Sc2ccccc21 | inconclusive: 39.8 µM [activator, single point] | –
Cc1cc(CNC(=O)[C@H](C)[C@H]2C[C@]2(C)[C@H](NC(=O)OCc2ccccc2)c2ccccc2)nn1C | inconclusive: 39.8 µM [activator, single point] | –
COCCn1c(CN2CCN(c3cccc(Cl)c3)CC2)nc2c1c(=O)n(C)c(=O)n2C | inconclusive: 31.6 µM [activator, single point] | –
Cn1c(SCC(=O)Nc2ccc3nc(SCC(=O)N4CCCC4)sc3c2)nnc1-c1ccc(N)cc1 | inconclusive: 39.8 µM [activator, single point] | –
CCCSCCCNC(=O)C1CCN(C(=O)c2cnn(-c3ccccc3)c2-n2cccc2)CC1 | inconclusive: 25.1 µM [activator, partial curve] | –
Cc1ccccc1NC(=O)c1cc2c(-c3ccccc3)nn(-c3ccccc3)c2s1 | inconclusive: 10 µM [inhibitor, partial curve] | –
CC(=O)c1cccc(NC(=O)COC(=O)c2cccc(N3C(=O)c4ccccc4C3=O)c2)c1 | inconclusive: 31.6 µM [inhibitor, single point] | –
CCOC(=O)/C=C/C(=O)OCC(=O)Nc1ccc(OC)c(Cl)c1 | active: 15.8 µM | –
COc1ccccc1NC(=O)C1=C(C)Nc2c(C(=O)Nc3ccc(C)cc3)cnn2C1c1cccc(OC)c1OC (stereo not given) | – | inactive: 0.103%
COc1cccc(/C=C/c2onc(C)c2S(=O)(=O)N2CCC(C(=O)N3CCCCC3)CC2)c1 | inconclusive: 20 µM [activator, partial curve] | –
CCOc1ccc(C2=NC(c3ccncc3)=Nc3ccc(C)cc3N2)cc1OCC | inconclusive: 39.8 µM [activator, single point] | –
CCCCCCCCCCCCCCCCOP(=O)([O-])OCC[N+](C)(C)C | inconclusive: 15.8 µM [activator, single point] | –
COCCCNC(=O)Cn1c(=O)n(-c2cccc(C)c2)c(=O)c2c1c1cc(C)ccc1n2C | – | inactive: 6.73%
CS(=O)(=O)N1CCN(C(=O)c2cc(-c3cccs3)nc3ccccc23)CC1 | inconclusive: 31.6 µM [activator, single point] | –
CCOC(=O)[C@@]1(C#N)C(c2ccc(Cl)c(Cl)c2)[C@H](C(N)=O)N2C=C(C(C)=O)C=C[C@H]21 (stereo not given in full) | inconclusive: 25.1 µM [inhibitor, single point] | –

From PubChem BioAssay AID1476 (National Center for Advancing Translational Sciences (NCATS), 2009)
